Measured values: the supplement of paper PMC3334620
Over roughly 33,000 sequences, “E-score (-0.5 to 0.5)” has its median near -0.032; the highest 2% begin near 0.36. Some of the results follow.

molecular target: T1, Sko1 (UniProt Q02100); assay: PBM E-score (8-mer binding enrichment) (E-score (-0.5 to 0.5)); higher = stronger / more preferred TF binding; most listed sequences are background and not binding sites; conditions: protein concentration: 200 nM; construct: GST-full length
T1 sequence: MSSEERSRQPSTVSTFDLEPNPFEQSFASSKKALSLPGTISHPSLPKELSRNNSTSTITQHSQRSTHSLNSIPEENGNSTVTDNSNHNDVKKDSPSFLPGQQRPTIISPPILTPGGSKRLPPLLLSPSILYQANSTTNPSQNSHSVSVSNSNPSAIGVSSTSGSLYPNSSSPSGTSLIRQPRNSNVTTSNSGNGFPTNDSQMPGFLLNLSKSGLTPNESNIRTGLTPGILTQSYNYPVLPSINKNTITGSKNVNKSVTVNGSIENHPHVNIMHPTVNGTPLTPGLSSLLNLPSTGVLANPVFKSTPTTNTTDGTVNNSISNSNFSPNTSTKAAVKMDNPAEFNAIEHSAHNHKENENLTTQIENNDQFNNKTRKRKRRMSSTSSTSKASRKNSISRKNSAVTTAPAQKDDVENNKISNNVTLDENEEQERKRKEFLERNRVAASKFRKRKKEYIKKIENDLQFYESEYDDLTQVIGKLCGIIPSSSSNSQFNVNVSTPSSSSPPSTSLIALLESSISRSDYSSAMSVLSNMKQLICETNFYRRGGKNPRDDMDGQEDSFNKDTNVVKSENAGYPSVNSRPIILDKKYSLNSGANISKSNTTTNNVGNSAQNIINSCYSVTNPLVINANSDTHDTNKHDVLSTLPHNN
Summary of the method: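 Yeast transcription factors, full-length or as DNA-binding domains, were expressed with a GST tag using PURExpress in vitro transcription/translation. At about 100-200 nM they were applied to universal all-10-mer Agilent arrays, double-stranded by primer extension on fresh or once-stripped slides. Fluorescent anti-GST detected bound protein, and masliner normalised the scans. E-scores for ungapped eight-base words, pooled with reverse complements, came from the Universal PBM Analysis Suite.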

Compared with AGGACGCG, CACGACCG is lower in “PBM E-score” value: -0.115 for the first, -0.199 for the second.

Compared with AAAAGACG, ACGTCTGC is lower in “PBM E-score” value: 0.302 for the first, 0.26 for the second.

First: ACAAGTTA
Second: CAGTAGAG
The “PBM E-score” value of the first is higher: 0.0177 for the first, -0.128 for the second.

Compared with CTGGCAAG, AGCTTATG is higher in “PBM E-score” value: -0.18 for the first, 0.133 for the second.

Going from ATTATCTC to TAAGGAAA, the “PBM E-score” value falls from 0.136 to 0.0795.

Compared with CGGTTCGA, AGAGCCGG is lower in “PBM E-score” value: -0.0173 for the first, -0.265 for the second.

First: ATTGTTAC
Second: GGCTGGTA
The “PBM E-score” value of the first is higher: 0.362 for the first, -0.299 for the second.

Compared with CCGATTCC, CCATCGGG is higher in “PBM E-score” value: -0.0807 for the first, -0.0494 for the second.

Going from AGGTGCAG to AGTTGTGC, the “PBM E-score” value rises from -0.224 to 0.0174.

Going from ATACTGGC to GATCCACC, the “PBM E-score” value falls from -0.127 to -0.176.

Compared with AACGTGGT, AGAGCCCA is lower in “PBM E-score” value: 0.261 for the first, -0.289 for the second.

First: GAATTCTC
Second: GAAAGCCC
The “PBM E-score” value of the first is lower: -0.0901 for the first, -0.0691 for the second.

First: GCTCATAC
Second: ATGAAGAA
The “PBM E-score” value of the first is lower: 0.114 for the first, 0.117 for the second.

First: ATCAAGCA
Second: TATGACGA
The “PBM E-score” value of the first is lower: 0.00175 for the first, 0.475 for the second.

Compared with CTGCGGTC, AGTCTATG is lower in “PBM E-score” value: -0.144 for the first, -0.148 for the second.

Going from CCTTAAAA to ATCCATAG, the “PBM E-score” value falls from 0.101 to -0.198.

First: CCAGTATA
Second: CCCTGGTC
The “PBM E-score” value of the first is higher: -0.193 for the first, -0.38 for the second.

Compared with CCCAATGC, ACCTGAAT is higher in “PBM E-score” value: -0.269 for the first, 0.131 for the second.

Going from GCGCGGAC to GTAATTTA, the “PBM E-score” value rises from 0.0624 to 0.366.

First: CGTTTTAA
Second: ACCAAAGG
The “PBM E-score” value of the first is higher: 0.167 for the first, -0.256 for the second.

Going from CTAACTCA to ATCGAACA, the “PBM E-score” value falls from 0.117 to 0.104.

First: CTAGATTC
Second: CGGATGGC
The “PBM E-score” value of the first is higher: -0.042 for the first, -0.1 for the second.

Going from ACATTTTA to GCGTTCGA, the “PBM E-score” value falls from 0.243 to 0.144.

Going from ACTCCACA to ATTCGGGC, the “PBM E-score” value falls from -0.0789 to -0.121.

First: CTACTCAC
Second: AACGGTTG
The “PBM E-score” value of the first is higher: 0.168 for the first, 0.0655 for the second.

Going from TCCCTAAA to GAGTATAA, the “PBM E-score” value rises from -0.0242 to 0.115.

Compared with AGACGGAA, ACGAATTA is higher in “PBM E-score” value: -0.136 for the first, 0.297 for the second.

First: AAAGTGAA
Second: AAGTGACT
The “PBM E-score” value of the first is higher: 0.106 for the first, -0.0253 for the second.

First: CCTGGTGA
Second: CAATCTCC
The “PBM E-score” value of the first is lower: -0.0993 for the first, -0.0733 for the second.

Compared with AACCCGAC, GGCGCAAA is higher in “PBM E-score” value: -0.0528 for the first, 0.0135 for the second.

Going from AGCCCAAA to CCCGCCAA, the “PBM E-score” value falls from 0.0865 to -0.241.

First: GCCAGAGC
Second: CGGGCGGC
The “PBM E-score” value of the first is lower: -0.4 for the first, -0.252 for the second.

Going from ACAGCAGT to CGTGGGTC, the “PBM E-score” value rises from -0.233 to -0.0366.

Going from AGAGGGAC to ATGTTTCC, the “PBM E-score” value rises from -0.19 to -0.135.

Compared with CGAAGCGA, AAACTCAA is higher in “PBM E-score” value: -0.0592 for the first, 0.0607 for the second.

First: CAGTCAGC
Second: CTTCAAAA
The “PBM E-score” value of the first is lower: -0.159 for the first, -0.0291 for the second.

Compared with AAAATGGA, ACTCAATA is higher in “PBM E-score” value: 0.136 for the first, 0.18 for the second.

Going from GAATCGAA to CATGTACG, the “PBM E-score” value rises from 0.0875 to 0.303.

First: GCAATAAC
Second: GACCGACA
The “PBM E-score” value of the first is higher: -0.00651 for the first, -0.152 for the second.

Going from GCTTTATA to AATAGGAC, the “PBM E-score” value rises from -0.0585 to 0.0779.

Compared with AATCGTAC, ATAGTATA is lower in “PBM E-score” value: 0.203 for the first, 0.0612 for the second.

First: CAGCGTTC
Second: AATGTATA
The “PBM E-score” value of the first is lower: 0.00371 for the first, 0.171 for the second.

First: GCATGGAA
Second: ACTGGACA
The “PBM E-score” value of the first is higher: -0.12 for the first, -0.208 for the second.

Compared with GACCGAGC, ACTACTCT is higher in “PBM E-score” value: -0.34 for the first, 0.0546 for the second.

Compared with ACGTGACA, AGAAACCT is lower in “PBM E-score” value: 0.394 for the first, -0.0985 for the second.

Compared with ACACCGAA, AGCGTCTA is lower in “PBM E-score” value: 0.0601 for the first, -0.146 for the second.

Going from GTCCGTCA to TACAACTA, the “PBM E-score” value falls from 0.179 to -0.0218.

Going from AGCAGCAC to ATGAAACA, the “PBM E-score” value rises from -0.111 to 0.0837.

Compared with CTGTCGTC, AGGGGTCG is lower in “PBM E-score” value: 0.21 for the first, -0.175 for the second.

Compared with CTGCTGAA, GACCAGCC is lower in “PBM E-score” value: -0.248 for the first, -0.306 for the second.

Going from AACACTAT to AGTGTCAC, the “PBM E-score” value falls from 0.228 to -0.00431.

First: CCGTGCAA
Second: AGAGTAAG
The “PBM E-score” value of the first is lower: -0.169 for the first, 0.0739 for the second.

Going from GGATGACC to TGAGACAA, the “PBM E-score” value falls from -0.0794 to -0.118.

First: AAGGCACT
Second: ATGCGGTG
The “PBM E-score” value of the first is higher: -0.168 for the first, -0.226 for the second.

First: GAACCATA
Second: CCTTGAAA
The “PBM E-score” value of the first is higher: -0.0436 for the first, -0.142 for the second.

Going from ATAAGCAA to TGAGTACA, the “PBM E-score” value falls from 0.0996 to -0.0184.

Compared with CCCTATGA, CCATTGCG is higher in “PBM E-score” value: 0.0198 for the first, 0.0331 for the second.

Compared with TCATTGGA, CTCATTAA is lower in “PBM E-score” value: 0.174 for the first, 0.0254 for the second.

Going from TGATGAAA to GCAGGAAA, the “PBM E-score” value falls from 0.195 to -0.131.

First: CGAAGAAC
Second: AGTCTCTA
The “PBM E-score” value of the first is higher: 0.141 for the first, -0.00077 for the second.

Compared with AATTAGTA, CCGGTAGC is lower in “PBM E-score” value: 0.249 for the first, -0.219 for the second.

First: CTCAGTTA
Second: CTCTCTCC
The “PBM E-score” value of the first is higher: -0.0515 for the first, -0.215 for the second.

Going from GTGCGAGA to CGGTCGAG, the “PBM E-score” value falls from 0.0251 to -0.316.

First: CTCCCTGC
Second: ATTGCACG
The “PBM E-score” value of the first is lower: -0.18 for the first, 0.198 for the second.

Compared with ACACCTCG, GAGGACGA is higher in “PBM E-score” value: -0.13 for the first, -0.0525 for the second.

First: CGCAATAA
Second: ATGTGTGC
The “PBM E-score” value of the first is higher: 0.337 for the first, -0.0761 for the second.

First: CTTGCGGA
Second: TAGTGCAA
The “PBM E-score” value of the first is lower: -0.261 for the first, 0.0883 for the second.

Going from CATAACGA to ATCTAAGA, the “PBM E-score” value falls from 0.164 to 0.0313.

Compared with ACGTAACA, AAGGGAAC is lower in “PBM E-score” value: 0.464 for the first, -0.263 for the second.

First: ACGGCCGT
Second: GGACCGAA
The “PBM E-score” value of the first is lower: -0.216 for the first, -0.0348 for the second.

Going from ATTACAGG to ATGACAGA, the “PBM E-score” value rises from 0.0412 to 0.169.

Compared with ACATATAA, AACTACGT is higher in “PBM E-score” value: 0.196 for the first, 0.455 for the second.

Compared with GTTAGCCA, GGATGCAC is lower in “PBM E-score” value: -0.0986 for the first, -0.16 for the second.

First: GCCGGCAC
Second: AGTTGGTC
The “PBM E-score” value of the first is lower: -0.168 for the first, -0.146 for the second.

Going from ATTCGAAA to GGGGCCAC, the “PBM E-score” value falls from 0.123 to -0.222.

Compared with CAACAGCG, AACGCCCT is lower in “PBM E-score” value: -0.0883 for the first, -0.159 for the second.

Compared with ACGCTCGG, CGGAGGAG is lower in “PBM E-score” value: -0.145 for the first, -0.408 for the second.

Compared with GAGGGACC, CTTAAGTC is higher in “PBM E-score” value: -0.276 for the first, -0.0759 for the second.

Going from CAAATCGC to AAAACGAT, the “PBM E-score” value rises from -0.249 to 0.15.

Going from CAAGGAGA to ATTATACA, the “PBM E-score” value rises from -0.217 to 0.211.

Compared with CCGAACCG, AGCGACAT is higher in “PBM E-score” value: -0.331 for the first, 0.143 for the second.

Going from GGCGGTGA to ACCTTTAC, the “PBM E-score” value rises from -0.0691 to 0.0365.

First: ACGGCTAA
Second: GCAGTCGA
The “PBM E-score” value of the first is higher: -0.0592 for the first, -0.0701 for the second.

Compared with TAACTTAA, CGCGCCCA is lower in “PBM E-score” value: 0.146 for the first, -0.16 for the second.

Compared with TATCAACA, AACAGTGC is lower in “PBM E-score” value: 0.193 for the first, -0.0938 for the second.

First: CTTAATAA
Second: GAGACAAA
The “PBM E-score” value of the first is higher: 0.0783 for the first, -0.2 for the second.
